# Measured values: PubChem BioAssay AID686978 (National Center for Advancing Translational Sciences (NCATS), 2013)
# About 64,000 (15%) of roughly 420,000 compounds were called active. Inconclusive results, whose numbers are uncertain, are shown with a selection of clear calls. The call rests on the fitted dose curve; in most records, active means well fitted inhibition curve with a large enough effect; inconclusive means small, poorly fitted or top-dose-only effect; inactive means flat fitted curve, though single readings scatter. No potency is given beside an inconclusive call; the fits are too rough.
# Assay: qHTS for Inhibitors of human tyrosyl-DNA phosphodiesterase 1 (TDP1): qHTS in cells in absence of CPT; further: nearly all actives have a fitted effect of over 55% in size
# Settings: DT40 Tdp1-/- hTDP1 cells, no CPT, ATP luminescence, 48 h; activity change, negative = growth inhibition: at 46.2 µM (top of the series) unless noted
# Method in brief: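 DT40 Tdp1-/-;hTDP1 cells, no CPT (DMSO vehicle only), 400 cells/well; compounds pin-transferred; ≥48 hr, 37 °C; CellTiter-Glo 30 min RT dark, luminescence read.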
# On the % scale 0 is the no-effect control and ±100 the full control effect; potency means the concentration at half of the fitted maximal effect; tags describe the fitted curve by direction and shape.
Compound,Potency,"activity change, negative = growth inhibition"
COc1ccc(OC)c(NC(=O)COC(=O)c2ccc(S(=O)(=O)N3CCCCC3)cc2)c1,"inconclusive [inhibitor, single point]",
O=S(=O)(c1ccc(NC(=S)NCCc2ccccc2)cc1)N1CCOCC1,"inconclusive [inhibitor, single point]",
O=C(CSCc1ccc(Cl)cc1)N/N=C/c1ccco1,"inconclusive [inhibitor, partial curve, poor fit]",
COc1ccc(C2CN=NC23CCc2ccccc2C3=O)cc1 (stereo not drawn),active: 23.1 µM,
O=C(NCCNc1ccc([N+](=O)[O-])cc1C(F)(F)F)c1cccc(F)c1,active: 20.6 µM,
CC(C)CNC(=O)COC(=O)c1c2c(nc3ccccc13)/C(=C/c1cccs1)CC2,active: 25.9 µM,
O=C1C[C@H]2C=CCc3cccc(c32)CN1Cc1ccc(F)cc1,active: 12.6 µM,
N#Cc1ccccc1S(=O)(=O)NC(=O)[C@H]1O[C@@H](n2cnc3c(N)ncnc32)[C@H](O)[C@@H]1O,active: 13 µM,
O=C(Cc1ccccc1)Nc1cccc(NC(=O)c2ccccc2)c1,"inconclusive [inhibitor, single point]",
COc1cccc(-c2nc(-c3ccccc3)c(-c3ccccc3)[nH]2)c1OCC(=O)O,inactive,
Cc1ccc(Nc2c([N+](=O)[O-])c(=O)n(C)c3ccccc23)cc1C,"inconclusive [inhibitor, single point]",
Cc1ccc(S(=O)(=O)c2nc(-c3ccccc3F)oc2NCc2ccccc2)cc1,active: 20.6 µM,
CCSC(N)=Nc1ccc(C(F)(F)F)cc1,"inconclusive [inhibitor, single point]",
C=CCn1c(SCc2ccc(C#N)cc2)nnc1-c1cccc(Cl)c1,"inconclusive [inhibitor, partial curve]",
CCCCn1c(N)c(N(CC(C)C)C(=O)c2cc3c(s2)CCCCC3)c(=O)[nH]c1=O,inactive,
CC(CC(=O)Nc1nnc(C(C)(C)C)s1)c1ccccc1 (stereo not drawn),"inconclusive [inhibitor, partial curve]",
CC(=O)NC(C)(c1ccccc1)c1nc(-c2cc(F)cc(F)c2)cs1 (stereo not drawn),"inconclusive [inhibitor, single point]",
CCN(CC(=O)NC1CCCC1)S(=O)(=O)c1ccc(F)cc1,inactive,
CCOCCCNS(=O)(=O)c1ccc(NC(=O)c2ccccc2)cc1,"inconclusive [inhibitor, single point]",
CCCCCCN1CCN(C2CN(Cc3cn(Cc4ccc(F)cc4)nn3)S(=O)(=O)C2)CC1 (stereo not drawn),"inconclusive [inhibitor, single point]",
O=C(CN1C(=O)S/C(=C\c2ccccc2)C1=O)NC1CCS(=O)(=O)C1 (stereo not drawn),inactive,
Cc1ccc(-c2onc3ccc(Cl)cc23)cc1,"inconclusive [inhibitor, partial curve, poor fit]",
Cc1ccc(-n2c(SCc3ccc(C(=O)O)cc3)nnc2-c2ccncc2)cc1,inactive,
COc1ccc(S(=O)(=O)N(C)c2ccc(C(=O)N3CCCC3)cc2)cc1OC,"inconclusive [inhibitor, partial curve]",

Compound,Potency,"activity change, negative = growth inhibition"
CCOc1cc(C(=O)OCC(=O)NC(C)c2ccccc2)ccc1OCC(=O)N1CCOCC1 (stereo not drawn),inactive,
Cc1c(C)n(O)c2ccc3nonc3c12,,inconclusive: -31.3% [inhibitor]
COc1cccc(/C=C2\N=C(SC)SC2=O)c1OC,"inconclusive [inhibitor, partial curve]",
Cn1c(=O)c2c(nc(NCCNC(=O)c3ccco3)n2Cc2ccc(F)cc2)n(C)c1=O,"inconclusive [inhibitor, single point]",
CCOC(=O)N1CCN(CC(=O)Nc2ccc(Oc3ccccc3)cc2)CC1,"inconclusive [inhibitor, single point]",
CCn1c(CNC(=O)c2cc(OC)c(OC)c(OC)c2)cc2cc(C)ccc21,active: 13 µM,
COc1ccc(N2C(=O)c3ccccc3C(C)(C)C2=O)cc1,inactive,
CC(C)(C)c1n[nH]c2c1CCCC2,inactive,
COc1ccc(S(=O)(=O)N(C)C)cc1NC(C)C(=O)Nc1cccc(C#N)c1 (stereo not drawn),inactive,
C=CCc1ccc(OCC(O)CN2CCN(Cc3ccc(Cl)cc3)CC2)c(OC)c1 (stereo not drawn),active: 20.6 µM,
COc1ccc(CC(=O)N2CCc3cc(OC)c(OC)cc3C2COc2ccc3c(C)cc(=O)oc3c2)cc1OC (stereo not drawn),inactive,
O=C(COc1ccccc1F)Nc1ccc(OCc2cc(=O)n3ccccc3n2)cc1,inactive,
COc1cccc(N2CCN(C3CC(=O)N(c4ccc(Cl)c(Cl)c4)C3=O)CC2)c1 (stereo not drawn),"inconclusive [inhibitor, partial curve]",
CCN(Cc1ccccc1)C(=O)c1oc2ccc(C)cc2c1C,"inconclusive [inhibitor, single point]",
CCOC(=O)c1cccc(NC(=O)CCn2cccc2)c1,inactive,
Cc1cccc(-n2cc[nH]c2=S)c1C,inactive,
Cc1ccc(C2=NN(C(=O)c3ccco3)C(O)(C(F)(F)F)C2)cc1 (stereo not drawn),"inconclusive [inhibitor, single point]",
CN(CC(=O)Nc1cccc(F)c1)C(=O)c1ccccc1OCCOc1ccccc1,"inconclusive [inhibitor, single point]",
CSc1nc(C)c(C(=O)C[n+]2ccccc2C)cc1C#N,"inconclusive [inhibitor, single point]",
COc1ccc(CNC(=O)C[C@@H]2C=C[C@@H](NS(=O)(=O)c3cccc(OC)c3)[C@@H](CO)O2)cc1,inactive,
CCOc1ccc(NC(=O)CCc2c(C)nc3c(-c4ccccc4)c(C)nn3c2C)cc1,,inconclusive: -23.7% [inhibitor]
COc1ccc(N2CCN(C(=O)CCC(=O)N3Cc4ccccc4Oc4ncccc43)CC2)cc1,"inconclusive [inhibitor, single point]",
COc1cccc(C=Cc2nccc3ccccc23)c1OC,active: 16.4 µM,
COc1ccc(O)c(C(=O)c2coc(=N)c(C(=O)Nc3ccc(SC(F)F)cc3)c2)c1,active: 18.4 µM,
